Source: PubChem BioAssay AID330 (DTP/NCI, 2004)
Inconclusive results and toxic doses are left out. A number of entries come with more than one value. The other results are left out here. The source may hold further records. The values listed for one entry do not match, cause unknown; they may come from other doses, times, organisms or constructs than stated.

Tested on: P388 leukemia ip, CD2F1 mice, survival T/C
Assay: NCI In Vivo Anticancer Drug Screen. Data for tumor model P388 Leukemia (intraperitoneal) in CD2F1 (CDF1) mice
Conditions: endpoint: median survival time, higher = longer survival

Compound	T/C (dose: 150.0 mg/kg/injection, schedule: Q04DX003 (ip), vehicle: clinical formulation)	T/C (dose: 25.0 mg/kg/injection, schedule: Q01DX005 (ip), vehicle: suspension in saline)
CCCCC(=O)OCC(=O)[C@]1(O)Cc2c(O)c3c(c(O)c2[C@@H](OC2CC(NC(=O)C(F)(F)F)C(O)C(C)O2)C1)C(=O)c1c(OC)cccc1C3=O (some centres not stated)	90 % of control, 98 % of control, 155 % of control	–
COc1cccc2c1C(CO)N1C(C#N)C3CC(C(=O)O)C(C1C2)N3C (configuration not stated)	–	96 % of control and 180 % of control
